# Reference: article PMC4336329 (PLoS ONE, 2015)
# Among all 310,000 compounds or so, about 2,200 (0.71%) showed an effect of 50% or more. Effects have a minus sign here. Some of the results follow.
# Molecular target: human ether-à-go-go-related gene (hERG) potassium channel (human, UniProt Q12809)
# Experiment: primary screen, population patch clamp on CHO cells stably expressing hERG
# Chain of human ether-à-go-go-related gene (hERG) potassium channel (Q12809 whole entry, looked up): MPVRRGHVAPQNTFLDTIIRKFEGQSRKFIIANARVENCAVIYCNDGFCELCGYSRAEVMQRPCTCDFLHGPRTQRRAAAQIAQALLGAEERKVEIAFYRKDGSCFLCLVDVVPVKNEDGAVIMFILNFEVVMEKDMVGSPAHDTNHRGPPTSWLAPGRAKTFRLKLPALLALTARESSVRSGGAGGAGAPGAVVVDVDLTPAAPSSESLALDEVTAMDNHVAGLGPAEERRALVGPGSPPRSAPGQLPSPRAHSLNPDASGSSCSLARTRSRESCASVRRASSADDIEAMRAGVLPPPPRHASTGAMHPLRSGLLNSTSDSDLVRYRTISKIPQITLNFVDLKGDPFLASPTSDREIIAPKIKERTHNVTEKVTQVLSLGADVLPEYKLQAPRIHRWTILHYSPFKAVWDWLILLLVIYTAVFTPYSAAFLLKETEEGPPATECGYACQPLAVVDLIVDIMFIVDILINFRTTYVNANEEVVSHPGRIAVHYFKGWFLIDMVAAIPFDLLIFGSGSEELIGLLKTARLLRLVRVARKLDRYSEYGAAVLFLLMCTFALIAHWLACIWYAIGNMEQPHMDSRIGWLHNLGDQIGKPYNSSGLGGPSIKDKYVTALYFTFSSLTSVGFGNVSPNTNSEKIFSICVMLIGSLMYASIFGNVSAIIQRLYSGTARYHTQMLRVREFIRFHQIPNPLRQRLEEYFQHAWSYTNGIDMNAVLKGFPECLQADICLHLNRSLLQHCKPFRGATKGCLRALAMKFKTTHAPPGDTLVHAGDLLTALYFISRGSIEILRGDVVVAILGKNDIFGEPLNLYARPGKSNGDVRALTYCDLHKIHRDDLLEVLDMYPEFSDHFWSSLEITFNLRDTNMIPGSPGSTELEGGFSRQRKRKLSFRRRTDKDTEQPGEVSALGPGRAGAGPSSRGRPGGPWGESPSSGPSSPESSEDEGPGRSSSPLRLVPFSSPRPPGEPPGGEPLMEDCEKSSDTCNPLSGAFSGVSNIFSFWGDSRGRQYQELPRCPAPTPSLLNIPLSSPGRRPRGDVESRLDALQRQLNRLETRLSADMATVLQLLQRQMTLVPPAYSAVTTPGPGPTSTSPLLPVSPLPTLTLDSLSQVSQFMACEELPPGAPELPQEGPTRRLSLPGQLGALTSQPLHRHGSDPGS
row,SMILES,"hERG current change (%, negative = inhibition) at 1uM"
1,O=C(Nc1ccc2c(c1)OCO2)Nc1ccc(F)cc1F,11.7%
2,CCn1cc(C(=O)N[C@@H](CCSC)C(=O)NCCCO)c(=O)c2cc3c(cc21)OCO3,15.9%
3,Cc1ccc2c(c1)C1CC(C)(O2)N(c2cccc(C(=O)N3CCN(c4ccccn4)CC3)c2)C(=O)N1 (stereo not shown),-2.42%
4,CCOC(=O)N1CCC(NC(=O)c2cc(C(=O)Nc3ccc(S(=O)(=O)N4CCOCC4)cc3)ccc2CO)CC1,19%
5,O=C(COC(=O)c1ccco1)Nc1nc2c(F)c(F)c(F)cc2s1,8.46%
6,CCCCc1cc(=O)oc2cc(C)cc(OCC(=O)NCc3cccnc3)c12,-18.7%
7,CC(=O)c1c(O)cc(O)cc1CC(=O)O,-5.77%
8,COc1ccc(C(=O)Nc2ccccc2C(=O)Nc2cccc(C)n2)cc1,12.6%
9,O=C(NCc1ccc2c(c1)OCO2)C1CCN(c2nccc(C(F)(F)F)n2)CC1,11.6%
10,CCOc1cc(N2CCOCC2)c(OCC)cc1NC(=O)c1ccc(OC(C)C)cc1,6.56%
11,CN(C)C(=O)CSC1c2ccccc2C(=O)N1c1ccccc1 (stereo not shown),4.41%
12,CCC(CC)C1C(C#N)=C(N)Oc2n[nH]c(-c3ccccc3)c21 (stereo not shown),18.3%
13,O=C(Nc1ccc(N2CCOCC2)c(Cl)c1)C1CCCCC1,13.1%
14,COc1ccc(OC)c(NC(=O)CSc2nnc(N)s2)c1,15.2%
15,CCc1ccc(/C=C2\Oc3cc(OS(C)(=O)=O)ccc3C2=O)cc1,6.53%
16,CCOC(=O)C1CCN(C(=O)CNC(=O)Cn2c(C)cc3ccccc3c2=O)CC1,10.5%
17,Cc1ccc([N+](=O)[O-])cc1S(=O)(=O)N1CCCC1,12.5%
18,Cc1ccc2nc(C)cc(N/N=C/c3ccc(F)cc3)c2c1,0.285%
19,O=C1C=C(c2cccc(Cl)c2O)C[C@@H](c2ccc(F)cc2)C1,4.16%
20,O=C(CCn1ccc([N+](=O)[O-])n1)Nc1nccs1,11%
21,CC(=O)N1CCN(S(=O)(=O)c2c(F)cc(F)c(Cl)c2F)CC1,0.475%
22,O=C(/C=C/c1ccc(Br)o1)NCc1ccccc1,9.85%

row,SMILES,"hERG current change (%, negative = inhibition) at 1uM"
1,CSCC[C@H](NC(=O)c1nn(C)c(=O)c2ccccc12)c1nc2ccccc2[nH]1,9.95%
2,CCc1c(C)nc2c(C)cccc2c1SCCC#N,15.5%
3,Cc1cc(C)c2c(=O)cc(C(=O)NCc3ccccc3)oc2c1,5.25%
4,O=C(Nc1nc2c(F)cccc2s1)C1CC1,1.11%
5,O=c1[nH]c2ccsc2c(=O)n1-c1ccc(F)c(Cl)c1,7.07%
6,O=C(COc1ccc(S(=O)(=O)NC2CCCCC2)cc1)NCc1ccccn1,2.1%
7,COC(=O)c1cn(NC(=O)c2ccc3c(c2)OCO3)c(=O)c2ccccc12,16.7%
8,N#Cc1c(NC(=O)CSc2nnnn2C2CCCC2)sc2c1CCCC2,-1.72%
9,CC(=O)C1CCN(Cc2ccccc2)CC1,17.3%
10,COc1ccc(Cl)cc1NC(=O)COC(=O)C1CC1,7.38%
11,O=C(NCc1ccc(Cl)cc1)C1CCC(=O)N(C2CC2)C1 (stereo not shown),-1.16%
12,NC(N)=NS(=O)(=O)c1ccc(NC(=S)NC(=O)/C=C/c2ccco2)cc1,2.78%
13,O=C(c1ccccc1)N1CCCC(C(=O)N2CCc3ccccc3C2)C1 (stereo not shown),7.09%
14,O=C(CN1C(=O)/C(=C\c2cccc(Cl)c2)Sc2ccccc21)NCCCN1CCOCC1,3.32%
15,Cc1ccc(C)c(NC(=S)N2CCC(NC(=O)c3ccccc3)CC2)c1,13.5%
16,COc1ccc(N(C)S(=O)(=O)c2ccc(Cl)c(C(=O)NCCc3ccc(Cl)cc3)c2)cc1,-12.4%
17,COc1ccc(S(=O)(=O)N2CCSC2c2ccccc2)cc1 (stereo not shown),0.0057%
18,Cn1c(=O)cc(SCC(=O)Nc2cccnc2)c2ccccc21,2.11%
19,CN(C)c1ccc2c(O)cc(=O)n(C)c2c1,12.2%
20,CCC(=NCc1ccco1)c1c(O)n(-c2ccc(OC)cc2)c(=O)[nH]c1=O,4.15%
21,C=C(C)C(=O)Nc1cccnc1Oc1ccc(F)cc1F,11.1%
22,O=C(Nc1ccccc1)c1cccc(S(=O)(=O)Nc2ccccn2)c1,21.5%

row,SMILES,"hERG current change (%, negative = inhibition) at 1uM"
1,CCc1ccc(-c2nc(CS(=O)CC(=O)NCCCN3CCC(C)CC3)c(C)o2)cc1 (stereo not shown),9.2%
2,COc1cc2c(cc1OC)C(C(=O)N1CCOCC1)C(c1cccs1)N(C)C2=O (stereo not shown),4.23%
3,CCCN(C(=O)CSc1nc2ccccc2n1CC)C1CCS(=O)(=O)C1 (stereo not shown),6.33%
4,CC1CC(C)(C)CC2(C1)NC(=O)N(CC(=O)N1CCN(S(=O)(=O)c3cccs3)CC1)C2=O (stereo not shown),7.88%
5,O=C(Nc1ccc(F)cc1)Nc1cc(S(=O)(=O)N2CCOCC2)ccc1N1CCCC1,-5.8%
6,CCN(CC)S(=O)(=O)c1cccc2nsnc12,14.8%
7,Cc1ccc(-c2c(C(=O)NC(C)C)oc(=O)c3ccccc23)cc1,1.54%
8,CC1Cc2ccccc2N1CC(=O)NCc1ccc2c(c1)OCO2 (stereo not shown),0.915%
9,Cc1cccn2c(=O)c3cc(C(=O)NCC4CCCO4)c(=N)n(Cc4ccc(F)cc4)c3nc12 (stereo not shown),-80.4%
10,Cc1ccc2oc(=O)c3cnn(CC(=O)Nc4cc(-c5cccc(F)c5)no4)c3c2c1,-6.17%
11,O=c1oc(-c2ccccc2F)nc2scc(-c3ccccc3)c12,-13%
12,O=[N+]([O-])c1ccc(C2(O)CN(c3ccccc3)C3=[N+]2CCS3)cc1.[Br-] (stereo not shown),-23.1%
13,O=C(Nc1ccc(OC(F)(F)F)cc1)c1cnc2n(c1=O)CCS2,-20.1%
14,Cc1cc(=O)oc2c(C)c(OCC(=O)N(C)C)ccc12,11.1%
15,CC1CN(C(=O)c2cc3c(=O)n4ccccc4nc3n2C)CC(C)O1 (stereo not shown),12%
16,O=C(NC1CCCC1)C(c1cccs1)N(C(=O)c1ccco1)c1ccc2c(c1)OCCO2 (stereo not shown),-3.36%
17,CC1(C)CC(=O)c2cc(OCC(=O)NCCCN3CCN(c4ccccc4F)CC3)ccc2O1,-26%
18,NS(=O)(=O)c1cccc(NC(=O)Nc2ccc(Cl)cc2)c1,-3.34%
19,COc1ccc(-c2cc(=O)oc3cc(OC(C)C(=O)NCC4CCC(C(=O)O)CC4)ccc23)cc1 (stereo not shown),12%
20,CCC(Sc1nc(C)cc(C)n1)C(=O)Nc1cc(C)on1 (stereo not shown),2.89%
21,O/N=C(\c1ccccn1)C1CC1c1ccccc1 (stereo not shown),17.4%
22,Cc1ccc(S(=O)(=O)N(C)C)cc1NC(=O)COC(=O)c1ccc2c(c1)OCO2,4.43%

row,SMILES,"hERG current change (%, negative = inhibition) at 1uM"
1,Cc1nnc(SCC(=O)N2CCN(c3ccccc3)CC2)n1C1CC1,7.46%
2,CC(Oc1ccc(Cl)cc1)C(=O)NCC1CCCO1 (stereo not shown),4.74%
3,O=C1CCCN1CCCNS(=O)(=O)c1ccccc1,16.7%
4,CC(=O)N1c2ccc(S(=O)(=O)N3CCC(C(=O)Nc4cccc(F)c4)CC3)cc2CC1C (stereo not shown),12.9%
5,CCC(CC)NC(=O)CSc1ccc(S(=O)(=O)N2CCOCC2)cn1,4.25%
6,CCOC(=O)c1ccc(NC(=O)c2nc[nH]c2C(=O)N[C@@H](CC(C)C)C(=O)OC(C)(C)C)cc1,9.16%
7,COc1ccccc1C(=O)NC(C)c1ccc(-n2ccnc2)cc1 (stereo not shown),10.9%
8,Cn1c(N)cc(-c2ccc(F)cc2)c(C#N)c1=O,1.35%
9,CC(C)(C)n1nc2c(c1NC(=O)COc1ccc3ccccc3c1)CS(=O)(=O)C2,-26%
10,Cc1ccc(C(=O)Nc2ccccc2-c2ccccc2)o1,6.14%
11,CCOc1ccc(Oc2c(/C=N/NC(C)=O)c(C)nn2-c2ccccc2)cc1,8.88%
12,CCOc1cc2[nH]c(=O)n(CCC(=O)NCCc3ccc(OC)c(OC)c3)c(=O)c2cc1OCC,13.9%
13,O=c1oc2ccccc2c(O)c1C=Nc1cccnc1,10.5%
14,COc1cccc(-c2ccc(NC(=O)C3CCCN(Cc4cnn(C)c4C)C3)cc2)c1 (stereo not shown),10.9%
15,Cc1ccc(Nc2nc(N)nc(COC(=O)C3=COCCO3)n2)cc1,9.68%
16,Cc1cc(C)n2nc(C(=O)N3CCN(c4ccc([N+](=O)[O-])cc4)CC3)nc2n1,-77.6%
17,Cc1cc(NS(=O)(=O)c2ccc(NC(=O)CCSc3ccc(F)cc3)cc2)nc(C)n1,11.3%
18,CCOC(=O)c1cc(S(=O)(=O)N(C)Cc2ccccc2)cn1C,8.44%
19,CC1(C(=O)NCCN2CCOCC2)C=CC2(CCCCC2)N1C(=O)c1ccccc1 (stereo not shown),12.7%
20,CN(c1cccc(NS(=O)(=O)c2cccs2)c1)S(C)(=O)=O,19.2%
21,CC(=O)NC1C(OCCOc2ccc(Cl)cc2Cl)OC(COC(C)=O)C(OC(C)=O)C1OC(C)=O (stereo not shown),-7.85%
22,O=C(NC1CC2CCCC(C1)N2C(=O)Nc1ccc(F)cc1)c1ccccc1 (stereo not shown),2.84%
